Six molecules from the supplement of paper PMC11383711 can be followed below.

The list shows a part of the results. Binding of human antibodies (heavy:light variable regions, tested as scFv in one mRNA-display pool) to influenza hemagglutinin, with or without the stem antibody CR9114 bound first. Score = (mean enrichment − median) / interquartile range of that screen; higher = more enriched, 0 = typical non-binder. Active = above the paper's cut-off per screen: stems 28; unblocked H1 Solomon Islands 5, H1 Michigan 3, H3 5, H5 19, H7 2.85, both B 5; blocked 9, 7, H5 10, H7 10, B Phuket 10, B Lee 11.5. Scores are scaled within each screen and are no affinities; replicates correlate at about 0.6 to 0.9, and antibodies rare in the pool are noisier.

Holding throughout (assay): mRNA display binding score; higher = more enriched on the antigen
The target of experiment [1] is Influenza A H1N1 A/Michigan/45/2015 hemagglutinin ectodomain. The protocol: (§1)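 A pool of natively paired antibodies, displayed as scFv on mRNA, was selected once on antigen-coated beads and sequenced before and after; two replicates.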
For experiment [2], the target named is Influenza A H1N1 A/Solomon Islands/3/2006 hemagglutinin ectodomain. The procedure:
as §1

Experiment [3] has as its target Influenza A H3N2 A/Singapore/INFIMH-16-0019/2016 hemagglutinin ectodomain. Conditions: antigen blocked with: nothing. The protocol: as §1
Experiment [4] has as its target Influenza A H5N1 A/Qinghai/1A/2005 hemagglutinin ectodomain. The procedure: as §1
The target in experiment [5] is Influenza A H7N9 A/Shanghai/2/2013 hemagglutinin ectodomain. The procedure:
as §1

In experiment [6] the target is Influenza B/Lee/1940 hemagglutinin ectodomain. The procedure: as §1
In experiment [7] the target is Influenza B/Phuket/3073/2013 hemagglutinin ectodomain. The protocol: as §1
The mark [8] stands for this setting: antigen blocked with: 2 µM CR9114 IgG.

B1: AG11-2A01 (protein)
chain 1: VQLVESGGAVVQPGGSLTLSCAASGFTFDDYAMHWVREVPGKGLEWVSLISWDAGNTYYGDSVKGRFNISRDNSKNFLYLQMNSLRADDTALYYCAKDIGGGNYDYYHGMDAWGQGTTVTVSS
chain 2: EIVMTQSPATLSVSPGERATLSCRASYSFGSKLAWYQQKPGQAPRLLIYGTSTRATGIPARFSGSGSGTEFTLTISSLQSEDFAVYYCQQYNNWPYTFGQGTKVEIK
As for B1, the “mRNA display binding score” value in experiment [1] (setting [8]) was inactive: -0.0428; in experiment [1] (antigen blocked with: nothing), inactive: -0.46; in experiment [2] (setting [8]), inactive: -0.365; in experiment [2] (antigen blocked with: nothing), inactive: -0.513; in experiment [3] it was inactive: -0.47; in experiment [4] (setting [8]), inactive: -0.797. Also, the “mRNA display binding score” value was inactive: -0.561 in experiment [4] (antigen blocked with: nothing); inactive: -0.605 in experiment [5] (setting [8]); inactive: -0.606 in experiment [5] (antigen blocked with: nothing); inactive: 0.096 in experiment [6] (setting [8]); inactive: -0.327 in experiment [6] (antigen blocked with: nothing); inactive: 0.783 in experiment [7] (setting [8]). Also, the “mRNA display binding score” value in experiment [7] (antigen blocked with: nothing) is inactive: 1.92.

B2: antibody 3E05 (protein)
chain 1: EVQLVESGGGLVQPGGSLRLSCAASGFTFSSYDMHWVRQAAGKGLEWVSAIGTAGDPYYPGSVKGRFTISRENAKNSLYLQLNSLRAGDTAVYYCARGVAASLVPRRYYYGLDVWGQGTTVTVSS
chain 2: SYELTQPPSVSVSPGQTASITCSGDMLGDKYACWYQQKPGQSPVLVIYEDTKRPSGIPERFSGSNSGNTATLTISGTQAMDEADYYCQAWTGSTPVVFGGGTKLTVL
In the case of B2, the “mRNA display binding score” value was inactive: -0.555 in experiment [1] (setting [8]); inactive: -0.684 in experiment [1] (antigen blocked with: nothing); inactive: -0.547 in experiment [2] (setting [8]); inactive: -0.681 in experiment [2] (antigen blocked with: nothing); inactive: -0.169 in experiment [3]; inactive: -0.776 in experiment [4] (setting [8]). Further, the “mRNA display binding score” value in experiment [4] (antigen blocked with: nothing) is inactive: -0.458; in experiment [5] (setting [8]), inactive: 8.65; in experiment [5] (antigen blocked with: nothing), inactive: -0.14; in experiment [6] (setting [8]) it was inactive: -0.104; in experiment [6] (antigen blocked with: nothing), inactive: 0.238; in experiment [7] (setting [8]) it was inactive: -0.302. The “mRNA display binding score” value in experiment [7] (antigen blocked with: nothing) is inactive: -0.276.

B3: AG1-A01 (protein)
chain 1: VQLVESGGGFVQAGRSLRLSCAASGFIFDDFAMHWVRQAPGGGLEWVSHISSNSGLIVYAESVKGRFTISRDNAMDALYLQMNSLTIEDTAFYYCMKGGHYSDSRGYGSNWGRGTLVTVSS
chain 2: DIQMTQSPSSLSASVGDRVTITCRTSQAISNRLAWFQQKPGKAPKSLIYAASTLQTGVPSKFSGTGSGTDFTLTISSLQPEDFATYYCQQYKSFPLTFGRGTKVEIK
Turning to B3, the “mRNA display binding score” value in experiment [1] (setting [8]) is inactive: 0.163; in experiment [1] (antigen blocked with: nothing), inactive: 1.76; in experiment [2] (setting [8]), inactive: 1.04; in experiment [2] (antigen blocked with: nothing) it was inactive: 3.15; in experiment [3], inactive: 0.683; in experiment [4] (setting [8]) it was inactive: 0.473. In addition, the “mRNA display binding score” value in experiment [4] (antigen blocked with: nothing) was inactive: 1.08; in experiment [5] (setting [8]), inactive: -1.19; in experiment [5] (antigen blocked with: nothing), inactive: 0.29; in experiment [6] (setting [8]), inactive: 1.08; in experiment [6] (antigen blocked with: nothing) it was inactive: 2.85; in experiment [7] (setting [8]), inactive: 0.205. In experiment [7] (antigen blocked with: nothing), the “mRNA display binding score” value was inactive: 2.33.

B4: K77-1D10 (protein)
chain 1: QVQLQESGPGLVKTSGTLSLTCAVSGGSMSSSDWWSWVRQPPGKGLEWIGEIHRSGTSNYNPSLQTRVTISVDKSKNQFSLKLTSVTAADTAVYYCARVATLYYDDNTPYSSYYFDFWGQGILVPVSS
chain 2: EIVLTQSPGTLSLSPGERATLSCRASQSVSTNYLAWYQQSPGQAPRLLIYGASSRAAGIPDRFSGSGSGTDFTLTITRLEPEDFAVYYCQHYVTSPLFGGGTKVEI
Regarding B4, the “mRNA display binding score” value in experiment [1] (setting [8]) was inactive: -0.354; in experiment [1] (antigen blocked with: nothing), inactive: -0.504; in experiment [2] (setting [8]), inactive: -0.608; in experiment [2] (antigen blocked with: nothing) it was inactive: -0.264; in experiment [3], inactive: 0.116; in experiment [4] (setting [8]) it was inactive: -0.696. Moreover, the “mRNA display binding score” value in experiment [4] (antigen blocked with: nothing) is inactive: -0.464; in experiment [5] (setting [8]), inactive: 0.12; in experiment [5] (antigen blocked with: nothing) it was inactive: -0.528; in experiment [6] (setting [8]), inactive: -0.419; in experiment [6] (antigen blocked with: nothing), inactive: -0.231; in experiment [7] (setting [8]) it was inactive: -0.464. In experiment [7] (antigen blocked with: nothing), the “mRNA display binding score” value was inactive: -0.399.

B5: W85-2E09 (protein)
chain 1: EVQLVESGGGLVQPGRSLRLSCTASGFTFSDYTMNWVRQAPGKGLEWIGFIRSNLYGGTSPYPASVRDRFTISRDDSKNIAYLQMNSLNTEDTAVYFCSRRRRGSTPLPDLWGQGTLVTVSS
chain 2: DIQMTQSPSTLSASVGDRVTITCRASQNVFSWLAWYQQKSGKAPQLLIYKASNLESGVPSRFSGSGSGTEFTLTINNLQPDDFASYYCQQYNSHSVWTFGQGTKVELK
Regarding B5, the “mRNA display binding score” value in experiment [1] (setting [8]) is inactive: 0.849; in experiment [1] (antigen blocked with: nothing), inactive: 2.94; in experiment [2] (setting [8]), inactive: 0.479; in experiment [2] (antigen blocked with: nothing), inactive: 4.99; in experiment [3] it was active: 8.42; in experiment [4] (setting [8]) it was inactive: 0.833. The “mRNA display binding score” value in experiment [4] (antigen blocked with: nothing) was inactive: 2.65; in experiment [5] (setting [8]) it was inactive: -0.723; in experiment [5] (antigen blocked with: nothing), active: 3.88; in experiment [6] (setting [8]), inactive: 1.83; in experiment [6] (antigen blocked with: nothing), active: 17.3; in experiment [7] (setting [8]), inactive: 0.336. In experiment [7] (antigen blocked with: nothing), the “mRNA display binding score” value is inactive: 3.87.

B6: R95-1H10 (protein)
chain 1: EVQLVESGGVVVQPGGSLRLSCAASGFTFDDFVMHWVRQAPGKGLEWLSLITWDGGNSYYADSVKGRFTISRDNNKNSLYLQMNSLRPEDTAFYYCAKDIISGNYEDFSGYLDSWGQGTLVTVSS
chain 2: EIVMTQSPATLSVSPGGRATLSCRASQSVSSNLAWYQQKPGQPPRLLMYGASTRATGIPARFSGSGSGTEFTLTISSLQSEDVAVYYCQQYNNWPSITFGQGTRLEIK
Regarding B6, the “mRNA display binding score” value is inactive: -0.139 in experiment [1] (setting [8]); inactive: -0.336 in experiment [1] (antigen blocked with: nothing); inactive: -0.0852 in experiment [2] (setting [8]); inactive: -0.591 in experiment [2] (antigen blocked with: nothing); inactive: -0.153 in experiment [3]; inactive: -0.276 in experiment [4] (setting [8]). Also, the “mRNA display binding score” value in experiment [4] (antigen blocked with: nothing) is inactive: -0.259; in experiment [5] (setting [8]), inactive: -0.244; in experiment [5] (antigen blocked with: nothing) it was inactive: -0.189; in experiment [6] (setting [8]), inactive: 0.729; in experiment [6] (antigen blocked with: nothing), inactive: -0.406; in experiment [7] (setting [8]), inactive: 3.46. In addition, the “mRNA display binding score” value in experiment [7] (antigen blocked with: nothing) is active: 5.43.
